# The other results are listed elsewhere or left out. The full chains were built here from the parent and the listed change. Inactive controls read about 0.05.
# B1: TEV protease; numbered along this chain (parent)
# chain: MGESLFKGPRDYNPISSSICHLTNESDGHTTSLYGIGFGPFIITNKHLFRRNNGTLVVQSLHGVFKVKDTTTLQQHLVDGRDMIIIRMPKDFPPFPQKLKFREPQREERICLVTTNFQTKSMSSMVSDTSCTFPSGDGIFWKHWIQTKDGQCGSPLVSTRDGFIVGIHSASNFTNTNNYFTSVPKNFMELLTNQEAQQWVSGWRLNADSVLWGGHKVFMVKPEEPFQPVKEATQL
# Variants of: B1
# Assay: raw area under fraction-flipped curve 0-4 h after induction (AUC4h, not background-subtracted), DNA-recorder readout of cleavage of the substrate (dimensionless); higher = more cleavage of the substrate by the protease variant
# Conditions: temperature: 34 °C; time window: 0-4 h after rhamnose induction
# Procedure: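 In vivo DNA recorder in E. coli TOP10(DE3) ΔrhaA at 34 °C. Each TEVp single-site mutant (parent TEVp 0) is paired with a single-site variant of the 7-mer TEVs (canonical ENLYFQ|S). The substrate sits between flexible linkers in a Bxb1-sfGFP-TEVs-SsrA fusion, so cleavage stabilises Bxb1 and speeds flipping of a recombination array, read by NGS. The value is the raw area under the fraction-flipped curve over 0-4 h after rhamnose induction (AUC4h), with ≥20 reads per time point. It is not background-subtracted; inactive controls average about 0.047.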
# 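Also: Bxb1 expression induced with 0.2% (w/v) L-rhamnose at OD600 near 0.5, cultures sampled hourly, flipped fraction per protease–substrate barcode pair counted by paired-end Illumina sequencing.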
Variant,area with substrate ENLYFQA,area with substrate ENLYFQC,area with substrate ENLYFQE,area with substrate ENLYFQG,area with substrate ENLYFQH,area with substrate ENLYFQI,area with substrate ENLYFQK,area with substrate ENLYFQL,area with substrate ENLYFQN,area with substrate ENLYFQP,area with substrate ENLYFQR,area with substrate ENLYFQS,area with substrate ENLYFQT,area with substrate ENLYFQW,area with substrate ENLYFQY,area with substrate ENLYFQF,area with substrate ENLYFQV,area with substrate ENLYFQD,area with substrate ENLYFQM,area with substrate ENLYFQQ
I42F,0.0711,0.0783,0.0731,0.083,0.0576,0.042,0.0374,0.0575,0.06,0.0533,0.103,0.0704,0.0634,0.0541,0.0688,,,,,
I42L,0.0767,0.116,,0.0867,,0.04,,0.0742,0.0769,,,0.104,0.0584,,,0.0606,0.0761,,,
I42R,0.145,0.0474,0.0496,0.0309,0.0387,0.0323,0.0484,0.0462,0.0285,,0.046,0.0461,0.0506,,0.0399,0.0427,0.0514,0.0248,0.0374,0.0359
I43A,0.088,0.0687,,0.0735,0.0734,0.0604,0.0702,0.06,0.0707,,,0.0754,0.0544,,0.0575,0.0528,0.0554,0.0711,0.0609,
I43E,0.0389,0.0689,,0.0408,0.042,,0.0433,0.0565,0.0441,0.0535,0.0417,0.0473,0.0557,0.0283,0.036,0.0165,,0.0431,0.0468,0.0552
I43Q,0.0451,0.036,0.0664,0.0527,0.0574,0.0509,0.0443,0.0307,0.0446,0.0559,0.0541,0.0475,0.0457,0.0415,0.042,0.059,0.0322,0.0542,0.0417,
T44P,0.031,0.0356,,0.123,0.0475,,0.0418,0.043,0.0405,0.0268,0.0419,0.0416,0.079,0.0409,0.0256,,0.0422,0.0315,0.0395,0.0407
T44S,0.0887,0.123,,0.0864,0.0853,0.0676,0.0572,0.0533,0.0724,0.0547,0.0607,0.0946,0.0742,0.041,,,,,0.0841,0.0642
N45T,0.0803,0.0886,,0.0901,0.0613,0.0365,0.0648,0.0368,0.0612,0.0549,0.0639,0.0828,0.0661,0.0468,0.0559,0.0458,0.0621,0.0515,0.0679,
K46A,0.121,0.199,0.0607,0.133,0.0987,0.0607,0.0716,0.0651,0.103,0.0655,0.0654,0.127,0.0634,0.0733,0.0901,,0.0571,0.0473,0.12,0.0889
K46C,0.126,0.131,,0.104,0.0752,0.0629,,0.0589,0.0573,0.0568,0.0574,0.103,0.0817,0.0434,0.0578,0.0621,0.0588,,0.0762,0.0624
K46M,0.105,0.0829,0.0618,0.11,0.0666,0.0506,0.106,0.0541,,0.0687,0.0556,0.0942,0.0564,0.0369,0.0458,,0.0483,0.0572,0.0563,
K46T,0.0715,0.124,0.0339,0.0812,0.0748,0.0526,0.0353,0.0318,0.0655,0.0637,0.0565,0.0838,0.0564,0.0588,0.0556,,0.0595,0.0728,0.057,0.0978
H47E,0.0492,0.0918,0.0578,0.0659,,0.0476,,0.0597,0.0641,,0.0527,0.06,0.0541,0.0475,0.0565,,0.0502,0.0443,0.0553,
F49A,0.056,0.0725,0.0472,0.0871,0.0662,0.0467,0.0601,0.042,0.0403,0.0666,0.0492,0.0602,0.0521,0.0666,0.0628,,0.0533,0.0568,0.0558,
F49M,0.0814,0.0623,0.0601,0.0681,0.0608,,0.0624,0.0612,0.0559,0.0606,0.0586,0.0694,0.0581,0.0706,0.0497,0.0445,0.0658,0.0549,0.0578,0.0707
R50K,0.0719,0.0961,,0.0935,,0.0573,0.0588,0.0597,0.0793,0.0606,0.0405,0.0995,0.0573,0.054,0.0603,,0.0631,,0.0667,
N52C,0.0755,0.0692,,,0.07,0.0727,0.0578,0.0654,0.064,,0.0568,0.0745,0.0601,0.0594,,,,0.0436,0.076,
N52P,0.0658,0.0477,,0.0534,,0.0606,,0.0516,0.0632,0.0587,0.0839,0.0734,0.0602,,,0.0567,0.0569,0.0694,,0.071
N52V,0.0704,0.068,,0.0661,0.0675,0.047,0.0595,0.068,0.0718,0.0221,0.0555,0.0712,0.0572,0.0504,,,0.0649,0.0578,0.0649,0.0697
N53C,0.0934,0.112,,,,,0.0771,,0.0791,,0.0618,0.093,0.0654,0.0079,0.0913,,0.0584,0.0702,0.0794,
N53V,0.0751,0.0598,,0.078,0.0672,0.0633,,0.0576,0.0729,,0.0476,0.0801,0.0543,0.0656,0.0587,,,0.0573,0.067,

# Reference: the supplement of paper PMC12217912
